Data on ten cell lines can be found in the supplement of paper PMC4967469.

Common to all, as to experiment: Viability of human cancer cell lines after 72 h of drug (GDSC screen)
Compound in one assay: CC1(C)CNc2cc(NC(=O)c3cccnc3NCc3ccncc3)ccc21 [AMG-706]
To be noted: top dose 2 µM; top dose inferred. On the procedure: (§1)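 Human cancer cell lines in 384-well plates, medium with 10% serum, drug for 72 h over a 256-fold dose range (nine 2-fold or five 4-fold steps up to the top dose). Adherent lines were fixed and stained with the nucleic acid dye Syto60, suspension lines read with resazurin; signal relative to control wells, capped at 0 and 100%. One two-parameter sigmoid per drug and line, fitted in a mixed model over all curves with the slope shared within a line.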

Compound in another assay: CC(=O)O[C@@]12CO[C@@H]1C[C@H](O)[C@@]1(C)C(=O)[C@H](O)C3=C(C)[C@@H](OC(=O)[C@H](O)[C@@H](NC(=O)OC(C)(C)C)c4ccccc4)C[C@@](O)([C@@H](OC(=O)c4ccccc4)[C@H]21)C3(C)C [Docetaxel]
To be noted: top dose 0.0125 µM. On the procedure: as §1

Compound in another assay: c1ccc2c(CCNc3ccc(Nc4ccncc4)cc3)c[nH]c2c1 [JNJ-26854165]
To be noted: top dose 10 µM. As for the experimental part:
as §1

Compound in a further assay: Cc1sc2c(c1C)C(c1ccc(Cl)cc1)=N[C@@H](CC(=O)OC(C)(C)C)c1nnc(C)n1-2 [JQ1]
As for the experimental part: as §1

Compound in a further assay: CCOc1nc(NC(=O)Cc2cc(OC)ccc2OC)cc(N)c1C#N [JNK Inhibitor VIII]
To be noted: top dose 10 µM; top dose inferred. As for the experimental part: as §1

Compound in a further assay: Cc1ccc(C(=O)N(CCCN)[C@@H](c2nc3cc(Cl)ccc3c(=O)n2Cc2ccccc2)C(C)C)cc1 [SB-715992]
To be noted: top dose 0.128 µM; top dose inferred. As for the experimental part: as §1

Compound in the next assay: COC(=O)[C@H](CCSC)NC(=O)c1ccc(NC[C@@H](N)CS)cc1-c1ccccc1 [FTI-277]
As to conditions: top dose 1.024 µM; top dose inferred. On the procedure: as §1

Compound in the next assay: COCC[n+]1c2c(n(Cc3cnccn3)c1C)C(=O)c1ccccc1C2=O [YM155]
As to conditions: top dose 5.12 µM. On the procedure: as §1

Compound in the next assay: C[C@]1(O)C[C@@H](c2nc(-c3ccc4ccc(-c5ccccc5)nc4c3)c3c(N)nccn32)C1 [OSI-906]
As to conditions: top dose 2.56 µM; top dose inferred. On the procedure:
as §1

Compound in a further assay: O=C(/C=C/c1cccc(S(=O)(=O)Nc2ccccc2)c1)NO [Belinostat]
As to conditions: top dose 20 µM; top dose inferred. As for the experimental part:
as §1

Compound in a further assay: CN1CCN(c2ccc([N+](=O)[O-])c3no[n+]([O-])c23)CC1 [NSC-207895]
As to conditions: top dose 20 µM; top dose inferred. As for the experimental part:
as §1

Where [1] appears, read: top dose 1 µM, screen: GDSC drug entry 1218, top dose inferred.
The mark [2] stands for this setting: top dose 2.56 µM, screen: GDSC drug entry 163.

By IC50 is meant the dose at which the fit gives 50% viability; a limit (>, <) means that the fit lies beyond the doses tested. AUC, from the same fit, is the share of area under the viability curve across the 256-fold dose range; it is 1 without any effect and falls as sensitivity rises. For some assays here: Where the top dose is marked as inferred, it is not printed in the source and was worked back from the curve model. For some assays here: Where an entry number is given, a second screen of the drug exists; the two often differ.

For orientation: IC50 means the midpoint of a concentration-inhibition curve. In the case of NCI-N87 (stomach, adherent), the AUC in the assay with AMG-706 was found to be 0.959; with Docetaxel it was 0.823; with JNJ-26854165, 0.874; with JQ1 (setting [1]), 0.976; with JNK Inhibitor VIII, 0.976. Besides, the IC50 was over 2 µM with AMG-706; 0.0122 µM with Docetaxel; over 10 µM with JNJ-26854165; over 1 µM in the assay with JQ1 (setting [1]); over 10 µM with JNK Inhibitor VIII.
For the cell line RCH-ACV (B-cell leukaemia, suspension), the AUC stood at 0.992 in the assay with AMG-706; 0.892 with Docetaxel; 0.894 with JNJ-26854165; 0.584 with JQ1 (setting [1]); 0.99 with JNK Inhibitor VIII. The IC50 with AMG-706 is over 2 µM; in the assay with Docetaxel it was 0.0102 µM; with JNJ-26854165, 8.31 µM; with JQ1 (setting [1]), 0.101 µM; with JNK Inhibitor VIII it was over 10 µM.
As to RH-18 (rhabdomyosarcoma, adherent), the AUC is 0.985 in the assay with SB-715992; 0.965 with AMG-706; 0.918 with Docetaxel; 0.899 with JNJ-26854165; 0.803 in the assay with JQ1 (setting [1]); 0.963 in the assay with JNK Inhibitor VIII. Also, the IC50 is over 0.128 µM in the assay with SB-715992; over 2 µM with AMG-706; over 0.0125 µM with Docetaxel; over 10 µM with JNJ-26854165; 0.583 µM in the assay with JQ1 (setting [1]); over 10 µM with JNK Inhibitor VIII.
Consider RT4 (bladder, adherent), for which the AUC was found to be 0.78 in the assay with SB-715992; 0.979 with AMG-706; 0.904 in the assay with Docetaxel; 0.987 in the assay with FTI-277; 0.987 in the assay with JNJ-26854165; 0.985 in the assay with JQ1 (setting [1]). Moreover, the AUC came out at 0.867 with JQ1 (setting [2]); 0.26 with YM155; 0.987 in the assay with OSI-906; 0.325 with Belinostat; 0.857 with NSC-207895. For the same cell line, the IC50 in the assay with SB-715992 is 0.0553 µM; with AMG-706 it was over 2 µM; in the assay with Docetaxel, over 0.0125 µM; with FTI-277, over 1.02 µM; in the assay with JNJ-26854165, over 10 µM; in the assay with JQ1 (setting [1]), over 1 µM. For the same cell line, the IC50 is 2.53 µM with JQ1 (setting [2]); 0.0631 µM with YM155; over 2.56 µM with OSI-906; 0.395 µM with Belinostat; 17.6 µM with NSC-207895.
For the cell line SK-MEL-31 (melanoma, adherent), the AUC with AMG-706 came out at 0.944; with Docetaxel, 0.843; in the assay with JNJ-26854165, 0.886; with JQ1 (setting [1]) it was 0.934; in the assay with JNK Inhibitor VIII it was 0.983. Besides, the IC50 was over 2 µM in the assay with AMG-706; over 0.0125 µM with Docetaxel; over 10 µM with JNJ-26854165; over 1 µM with JQ1 (setting [1]); over 10 µM with JNK Inhibitor VIII.
Consider SUP-B8 (B-cell leukaemia, suspension), for which the AUC with AMG-706 turned out to be 0.986; in the assay with Docetaxel it was 0.865; with JNJ-26854165 it was 0.765; with JQ1 (setting [1]) it was 0.982; with JNK Inhibitor VIII it was 0.989. Further, the IC50 is over 2 µM with AMG-706; 0.0108 µM with Docetaxel; 3.64 µM with JNJ-26854165; over 1 µM with JQ1 (setting [1]); over 10 µM in the assay with JNK Inhibitor VIII.
Regarding TC-YIK (cervix, suspension), the AUC with AMG-706 was determined as 0.989; with Docetaxel it was 0.849; with JNJ-26854165, 0.933; with JQ1 (setting [1]), 0.633; with JNK Inhibitor VIII, 0.988. The IC50 with AMG-706 was over 2 µM; with Docetaxel it was 0.00755 µM; with JNJ-26854165 it was over 10 µM; with JQ1 (setting [1]), 0.138 µM; with JNK Inhibitor VIII, over 10 µM.
Consider U-266 (myeloma, semi-adherent), for which the values for the AUC with AMG-706, in the assay with Docetaxel and with JNK Inhibitor VIII were 0.98, 0.682 and 0.98, respectively. Further, the results for the IC50 in the assay with AMG-706, with Docetaxel and with JNK Inhibitor VIII were over 2 µM, 0.00303 µM and over 10 µM, respectively.
With “VMRC-LCD (lung adenocarcinoma, adherent)”, the AUC with AMG-706 amounted to 0.993; in the assay with Docetaxel, 0.727; in the assay with JNJ-26854165, 0.936; in the assay with JQ1 (setting [1]), 0.992; with JNK Inhibitor VIII, 0.993. The IC50 with AMG-706 was over 2 µM; in the assay with Docetaxel it was 0.00302 µM; with JNJ-26854165, over 10 µM; with JQ1 (setting [1]) it was over 1 µM; with JNK Inhibitor VIII it was over 10 µM.
ZR-75-30 (breast, adherent): the AUC is 0.949 with AMG-706; 0.861 in the assay with Docetaxel; 0.95 in the assay with JNJ-26854165; 0.981 with JQ1 (setting [1]); 0.976 in the assay with JNK Inhibitor VIII. The IC50 was over 2 µM in the assay with AMG-706; over 0.0125 µM with Docetaxel; over 10 µM with JNJ-26854165; over 1 µM in the assay with JQ1 (setting [1]); over 10 µM in the assay with JNK Inhibitor VIII.
